Our source for the inhibition values is PubChem BioAssay AID1434 (Sanford-Burnham Center for Chemical Genomics, 2008).

Each structure is given as a SMILES string. Some of the results follow. Shown are side measurements of this screen, not its main read-out; they come without a call. The list favours compounds with an active or inconclusive main result.

The assay addresses Runt-related transcription factor 1 (Homo sapiens) + Core-binding factor subunit beta (Homo sapiens) (UniProt Q01196+Q13951). The assay is described as follows: inhibitors of RUNX1 Runt–CBFb-SMMHC binding, primary screen, biochemical, FRET, Cerulean-Runt, Venus-CBFb-SMMHC, uHTS (AID 1434).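 Further: 0% = DMSO wells and 100% = wells with excess untagged CBFb-SMMHC; inhibitors lower the FRET ratio by blocking Runt binding to CBFb-SMMHC.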 The conditions noted are these: Cerulean-Runt/Venus-CBFb-SMMHC FRET ratio 530/480, 1 h; retest duplicate average; at 20 µM; stronger effect = higher value.
Sequence of UniProt Q01196 (Q01196 whole entry, looked up): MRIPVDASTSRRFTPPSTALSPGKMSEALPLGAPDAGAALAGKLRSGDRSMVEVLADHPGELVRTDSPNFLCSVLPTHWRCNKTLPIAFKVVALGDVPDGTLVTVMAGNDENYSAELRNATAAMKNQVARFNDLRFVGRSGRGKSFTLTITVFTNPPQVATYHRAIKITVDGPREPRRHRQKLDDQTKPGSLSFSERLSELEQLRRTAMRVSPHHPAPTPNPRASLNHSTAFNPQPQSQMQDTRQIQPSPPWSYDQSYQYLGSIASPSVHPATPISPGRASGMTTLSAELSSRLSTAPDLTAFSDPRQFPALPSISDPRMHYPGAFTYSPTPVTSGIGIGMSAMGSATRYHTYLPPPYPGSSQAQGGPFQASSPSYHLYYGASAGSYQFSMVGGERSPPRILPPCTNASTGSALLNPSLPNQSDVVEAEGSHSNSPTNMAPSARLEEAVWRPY
Sequence of UniProt Q01196 (Q13951 whole entry, looked up): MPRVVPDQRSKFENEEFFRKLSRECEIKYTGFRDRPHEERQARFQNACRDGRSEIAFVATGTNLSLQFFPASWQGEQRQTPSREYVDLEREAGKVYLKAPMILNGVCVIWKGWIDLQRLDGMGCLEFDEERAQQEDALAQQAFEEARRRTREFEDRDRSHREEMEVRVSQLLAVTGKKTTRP
As a reminder, the inhibition is the relative decrease from the control value, in per cent. Take `Cc1cccn2c(=O)c3cc(C(=O)NCc4cccnc4)c(=N)n(C)c3nc12`: the inhibition is 159%.

As to `COCCCNC(=S)NCCNc1nc2c(C)c(C)ccc2cc1C#N`, the inhibition came out at 75.8%.

For `CCn1nc(NC(=O)C2CCCO2)c2cc3cccc(C)c3nc21` (centres undefined), the inhibition was 83.8%.

`CCOC(=O)C(C)c1c(C(=O)c2ccc(C)nc2)c2ccccc2n1C` (centres undefined): the inhibition was 73.9%.

With `COc1ccc(-n2c(O)c(C=Nc3ccccc3)c3ccccc3c2=O)cc1`, the inhibition came to 66.1%.

`O=C(Cc1cn2ccsc2n1)Nc1nc2c(s1)CN(Cc1ccccc1)CC2`: the inhibition came out at 108%.

Regarding `COCCn1c(=NC(=O)c2ccc3c(c2)OCO3)c(C#N)cc2c(=O)n3cccc(C)c3nc21`, the inhibition was 166%.

On to `COCCn1c(=N)c(C(=O)NCCc2ccc(OC)cc2)cc2c(=O)n3cccc(C)c3nc21`, for which the inhibition came out at 170%.

As for `CCOC(=O)c1cc2c(=O)n3ccccc3nc2n(CC2CCCO2)c1=NC(C)=O` (centres undefined), the inhibition amounted to 72.9%.

On to `CCOCCCn1c(=N)c(C(N)=S)cc2c(=O)n3cccc(C)c3nc21`, for which the inhibition amounted to 71.5%.

With `CCC12OC(=N)C(C#N)(C1C)C(C#N)(C#N)C(c1ccccc1)O2` (centres undefined), the inhibition is 110%.

`CCOC(=O)N1CCC(NC(=O)c2ccc3c(c2)N(C)CCS3)CC1`: the inhibition came out at 49.1%.

Turning to `Cc1cc(=O)oc2c(CN3CCC(C)CC3)c(O)c(Cl)cc12`, the inhibition came to 141%.

As to `Cc1ccc(CNC(=O)/C(C#N)=C\c2ccc(N(C)C)cc2)cc1`, the inhibition was determined as 72.7%.

`O=c1[nH]c(N/N=C/c2ccccc2)nc2ccccc12`: the inhibition amounted to 61.1%.

On to `CCN(CC)CCNc1c2c(c(C#N)c3nc4ccccc4n13)CCCC2`, for which the inhibition came to 64.1%.

For the compound `O=c1c2ccccc2sn1-c1ccccc1`, the inhibition was 56.1%.

For the compound `Cc1cc(C)c[n+](-c2nc3ccccc3nc2[N-]S(=O)(=O)c2ccc(Br)s2)c1`, the inhibition was found to be 86.4%.

Turning to `O=C(Cn1c2ccccc2c(=O)c2ccccc21)Nc1cccc(F)c1`, the inhibition worked out at 100%.

Turning to `Cc1c(OC(=O)CNC(=O)OC(C)(C)C)ccc2c3c(c(=O)oc12)CCC3`, the inhibition came out at 89.3%.

Regarding `CC1CCCCC1NC(=O)CN1C(=O)c2cccc(N)c2C1=O` (centres undefined), the inhibition is 70.6%.

On to `CCCCCCc1cc2cc(S(=O)(=O)c3ccc(Cl)cc3)c(=O)oc2cc1O`, for which the inhibition was found to be 71.5%.

As to `Oc1c(C=NCc2ccncc2)sc2ccccc12`, the inhibition amounted to 63.6%.

`CCCCCCc1cc2cc(C(=O)Nc3ccccc3OC)c(=O)oc2cc1O`: the inhibition stood at 77.3%.

With `NC(=O)c1ccc(Oc2cccc3cccnc23)c([N+](=O)[O-])c1`, the inhibition amounted to 118%.

Take `CCOC(=O)C1=C(CSc2nc3c(cc2C#N)CN(C)CC3)OC(N)=C(C#N)C1c1ccc(F)cc1` (centres undefined): the inhibition was found to be 61.6%.

For `CCc1c(C)c2cc(Cl)c(O)c(CN(CC)CC)c2oc1=O`, the inhibition came out at 173%.

Turning to `CCn1c(O)c(/C=N/NC(=O)c2ccncc2)c(=O)n(CC)c1=S`, the inhibition was 71.5%.

On to `S=c1[nH]nc(-c2cc3c(s2)-c2ccccc2CC3)o1`, for which the inhibition turned out to be 108%.
